We go through 110 sequences from PMC6212790.

Some of the results follow. At the low end of the ranking the order means little.

In the assay the target is T1, GST-Rok (full length) (UniProt O34857).
T1 sequence: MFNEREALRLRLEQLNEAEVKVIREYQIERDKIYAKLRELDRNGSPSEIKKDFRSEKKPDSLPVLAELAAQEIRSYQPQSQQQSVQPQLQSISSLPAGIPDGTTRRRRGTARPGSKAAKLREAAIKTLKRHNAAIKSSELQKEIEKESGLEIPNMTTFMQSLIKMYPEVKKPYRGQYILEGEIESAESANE
Description: protein binding microarray.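 Also: rank score from −0.5 (least bound) to 0.5 (best bound).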 The settings on record: Rok is a gene silencer of Bacillus subtilis; high values mean tight binding; most listed sequences are background and not binding sites; double strand, one strand shown.
As to ATGGAGTC, the binding signal came to 0.045 E-score. In turn, CTTACAAG gave a binding signal of -0.114 E-score. As for TCAGCCGA, the figure is -0.0625 E-score. Turning to CTGCCTGA, the binding signal was -0.0653 E-score.

As to GCAGGCAC, the binding signal is -0.205 E-score.

The sequence TCATCGCA registered a binding signal of 0.0709 E-score. With AAATTGGA, the binding signal is 0.126 E-score. As for ATTGGTGC, the figure is 0.0963 E-score.

Regarding AACATAGG, the binding signal amounted to 0.0767 E-score. In turn, TCACTACA had a binding signal of 0.0227 E-score. As for ACTTAGAC, the figure is -0.215 E-score; as for TAACGGGA, 0.0692 E-score. CACCGTGA came in with a binding signal of -0.145 E-score. As for GAAACGGA, the figure is -0.132 E-score. CGAAGCAA had a binding signal of -0.114 E-score.

The sequence CTGAATAA displayed a binding signal of 0.213 E-score. As for CGACCTCA, the figure is -0.296 E-score; as for ACCTCCCT, -0.354 E-score.

ACCTCCCA gave a binding signal of -0.188 E-score. On to AGGGGCGC, for which the binding signal is -0.258 E-score. Turning to CCAAGATC, the binding signal is -0.0111 E-score. On to TCACATAA, for which the binding signal worked out at 0.156 E-score. Regarding GGATTGCA, the binding signal was determined as 0.0499 E-score. Regarding ATGCAGGA, the binding signal stood at 0.0987 E-score. Sequence GTATCGCA yielded a binding signal of 0.0843 E-score. TGATGGAA displayed a binding signal of 0.0673 E-score.

In the case of CGGCACGC, the binding signal is -0.112 E-score. The value for CCTTCCCA was -0.344 E-score.

AGAGATCT returned a binding signal of 0.012 E-score. The sequence CAATACCA displayed a binding signal of 0.139 E-score.

Sequence ACCGGGAA registered a binding signal of -0.258 E-score. As for ACCGCCGG, the figure is -0.178 E-score; as for GGAACGCC, -0.321 E-score.

TCCTGGCA showed a binding signal of -0.0252 E-score.

On to CAGAGTTC, for which the binding signal is -0.0177 E-score. Sequence GGGCGTAA yielded a binding signal of -0.158 E-score. In the case of ATTTGGCC, the binding signal is -0.00123 E-score. In turn, CCAAACGC came in with a binding signal of -0.138 E-score. TCCAGAAA gave a binding signal of -0.00865 E-score.

CGCCATTC registered a binding signal of -0.0796 E-score.

Consider TAATGCCA, for which the binding signal is -0.00233 E-score. CAACGGCA registered a binding signal of -0.0596 E-score.

In the case of ATAGCAGC, the binding signal is -0.00314 E-score. In the case of TAATAAAA, the binding signal came to 0.264 E-score. On to CGACCCGC, for which the binding signal is -0.315 E-score.

In turn, GCCTGTCC returned a binding signal of -0.196 E-score. AAACTCGA registered a binding signal of -0.101 E-score. Take ACTAGGAC: the binding signal is -0.0121 E-score. AGGGCAAT showed a binding signal of -0.214 E-score. For ACGCCAAA, the binding signal was -0.161 E-score. As for AGATGAAG, the figure is -0.142 E-score; as for GAAATTCC, 0.0555 E-score. The value for AGACGCCG was -0.261 E-score. The value for CAATGTAG was 0.265 E-score; that for ACCGACGA was -0.132 E-score. For CTTCGGGA, the binding signal is -0.224 E-score. CCAAGTAG yielded a binding signal of 0.236 E-score.

Consider CGGTGTAG, for which the binding signal was found to be 0.146 E-score.

AGCGAATA showed a binding signal of 0.00411 E-score. The value for CTGTTGTA was 0.135 E-score; that for CCTATGGA was -0.0907 E-score; that for CTGTAAGA was 0.0404 E-score.

Take AGTCCAGA: the binding signal is 0.00806 E-score.

For CACAACAG, the binding signal was -0.173 E-score. As for AGCGGCTC, the binding signal was -0.196 E-score. In the case of CCCGATCG, the binding signal was -0.0661 E-score. The value for GCGCGCGA was 0.176 E-score; that for AGAGCGCT was 0.0771 E-score; that for CACTTAGA was -0.0937 E-score. CACACGTA had a binding signal of 0.0249 E-score. As for GAACTCCA, the figure is -0.108 E-score; as for CCTGTCGC, -0.207 E-score; as for AGTCACTG, -0.108 E-score. For the sequence ATGAGCCG, the binding signal was -0.132 E-score.

TGTAACAA gave a binding signal of 0.162 E-score.

For the sequence CACGAAGA, the binding signal amounted to 0.00904 E-score. As for ATCATCAT, the figure is 0.179 E-score. GGAAGTCC had a binding signal of -0.155 E-score.

CGCGTAGA returned a binding signal of -0.0533 E-score.

For the sequence GATGGCAA, the binding signal was -0.13 E-score. CGCCGGGC registered a binding signal of -0.359 E-score. For the sequence ATCTTCTC, the binding signal stood at 0.0728 E-score. In turn, AGCTCTTG showed a binding signal of -0.0196 E-score.

For GTGGTCTA, the binding signal amounted to 0.0243 E-score.

With GCATGTAA, the binding signal was found to be 0.165 E-score. ACGACGAG: the binding signal stood at 0.0239 E-score.

The sequence AAACCATG displayed a binding signal of 0.0884 E-score. The sequence AAGTGAAA gave a binding signal of 0.19 E-score. On to CATACCTA, for which the binding signal was determined as 0.334 E-score.

As to AAACCCAT, the binding signal is -0.139 E-score. Consider CGTCCAAC, for which the binding signal was -0.164 E-score. ACCATGAT came in with a binding signal of 0.129 E-score. Sequence GAAATTAA registered a binding signal of 0.302 E-score. The sequence TAACTCGA yielded a binding signal of 0.0667 E-score. For the sequence ATGCTACG, the binding signal amounted to 0.0613 E-score. The sequence AGTTTTGC came in with a binding signal of 0.173 E-score. The sequence ACGTTGAG gave a binding signal of -0.059 E-score.

TATCCTCA: the binding signal came out at 0.092 E-score. ACACAAGT showed a binding signal of 0.0703 E-score. As for AAGCGAAA, the figure is -0.0605 E-score; as for AGTCGCAA, -0.0221 E-score. As for AAATAATG, the figure is 0.189 E-score. Turning to ATTAGTAC, the binding signal amounted to 0.3 E-score. The sequence CTCCTACC showed a binding signal of -0.0309 E-score. On to CCAAGACC, for which the binding signal is -0.18 E-score. The sequence ATGTACAA had a binding signal of 0.311 E-score. As for ACTGCCCG, the figure is -0.259 E-score; as for ACCTCTTG, -0.0052 E-score. The sequence GCCTCGAA came in with a binding signal of -0.0926 E-score. As for TACAGTCA, the figure is -0.014 E-score.
